Test results taken from PubChem BioAssay AID624417 (National Center for Advancing Translational Sciences (NCATS), 2012).
The campaign covered roughly 410,000 compounds. About 6,400 (1.6%) were called active. The inconclusive results got no clear call from the source; some entries with a clear call stand among them for comparison. The call rests on the fitted dose curve; in most records, active means well fitted inhibition curve with a large enough effect; inconclusive means small, poorly fitted or top-dose-only effect; inactive means no such curve, though single readings can be large or run the other way. No potency is given beside an inconclusive call; the fits are too rough.

biological target: Glucagon-like peptide 1 receptor (Homo sapiens) (UniProt P43220); experiment: qHTS of GLP-1 Receptor Inverse Agonists (Inhibition Mode); details: HEK293 GLP-1R CRE-luciferase, luminescence, 24 h, GLP-1R form is constitutively active; series mostly up to 38.3 µM; further: nearly all actives have a fitted effect of over 55% in size
UniProt P43220, sequence (P43220 whole entry, looked up): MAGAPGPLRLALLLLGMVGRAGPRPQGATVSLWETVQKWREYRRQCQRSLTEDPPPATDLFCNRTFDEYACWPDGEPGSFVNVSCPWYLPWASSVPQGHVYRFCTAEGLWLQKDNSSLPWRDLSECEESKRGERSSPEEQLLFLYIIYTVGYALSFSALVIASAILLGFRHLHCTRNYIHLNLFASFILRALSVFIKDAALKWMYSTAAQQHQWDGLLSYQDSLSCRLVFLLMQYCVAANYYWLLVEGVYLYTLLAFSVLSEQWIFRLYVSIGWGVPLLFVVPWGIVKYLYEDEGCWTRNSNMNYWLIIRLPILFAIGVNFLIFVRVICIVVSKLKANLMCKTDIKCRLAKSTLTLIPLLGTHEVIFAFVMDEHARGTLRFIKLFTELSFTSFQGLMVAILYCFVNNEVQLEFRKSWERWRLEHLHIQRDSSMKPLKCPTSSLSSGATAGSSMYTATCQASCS
Summary of the method: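 Cells are plated, allowed 12 hours at 37 deg C, then treated with compounds for 24 hr before luciferase detection reagent is added and luminescence is read after 12 min at room temperature. The HEK293 line carries constitutively active GLP-1R with a cAMP-responsive reporter.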
Potency means the concentration at half of the fitted maximal effect; tags describe the fitted curve by direction and shape.

Structure (SMILES) | Potency
CCc1ccc(NC(=O)C2C3C=CC(C4CC34)C2C(=O)O)cc1 (centres undefined) | inconclusive [inhibitor, single point]
CCCN1CCN(CCCNC(=O)Cn2nc(C)n3c(cc4c(OC)cccc43)c2=O)CC1 | inactive
Cc1cccc(N2CCN(C(=O)COc3cccc4c3OC(C)(C)C4)CC2)c1C | inconclusive [inhibitor, single point]
O=C(Nc1ccccc1)Nc1cccc(NC(=O)Nc2ccccc2)c1F | inactive
COc1cc(NC(=O)CSc2nc(-c3ccc(C(C)C)cc3)no2)cc(OC)c1 | inactive
O=C(NCCc1ccc(C(F)(F)F)cc1)C1CCC(=O)N(CCCc2ccccc2)C1 (centres undefined) | inconclusive [inhibitor, partial curve, poor fit]
CC[C@H](C)Cc1cn([C@@H](CCCCNC(=O)OC(C)(C)C)C(=O)NCCCCCCCCCCC(=O)N2CCN(C(=O)OC(C)(C)C)CC2)nn1 | inconclusive [inhibitor, single point]
Cn1c(N)c(C(=O)c2cc(-c3ccccn3)nc3ccccc23)c(=O)[nH]c1=O | inactive
O=C(Nc1cccc(Cl)c1)N1CCSc2cc(Cl)ccc21 | inconclusive [inhibitor, single point]
CC(C)NC(=S)N1CCC(Cc2ccccc2)CC1 | inconclusive [inhibitor, partial curve, poor fit]
c1ccc(CCc2nc3ccccc3[nH]2)cc1 | inactive
CC(=O)NC(c1cccc([N+](=O)[O-])c1)c1ccc2cccnc2c1O (centres undefined) | inconclusive [inhibitor, partial curve, poor fit]
COc1ccc(Nc2cc(C)nc3ccc(C)cc23)cc1 | inconclusive [inhibitor, partial curve, poor fit]
N#C/C(=C\c1c[nH]c2ccc(Br)cc12)c1ccccn1 | inconclusive [inhibitor, single point]
CCc1cc(C(=O)N/N=C/c2ccc(O)cc2O)c2ccccc2n1 | inactive
O=c1oc(Nc2cccc(Cl)c2)nc2ccccc12 | inactive
COCCCn1c(=O)c2sccc2n2c(CCCC(=O)NC3CCC(C)CC3)nnc12 (centres undefined) | inactive
Cc1cccc(NC(=O)C2CCN(S(=O)(=O)c3ccc4c(c3)CCCN4C(=O)C3CCC3)CC2)c1 | inconclusive [inhibitor, single point]
O=[N+]([O-])c1cccc(-c2ccc(C(=S)N3CCOCC3)o2)c1 | inactive
O=C(NCCn1cc(SCc2ccccc2F)c2ccccc21)c1c(F)cccc1F | inconclusive [inhibitor, partial curve, poor fit]
Cc1c(C(=O)Nc2c(F)cc(F)cc2Br)sc2ncn(CC(=O)N3CCCC3)c(=O)c12 | inconclusive [inhibitor, single point]
OC(C#CCN1CCCC1)(c1ccccc1)c1cccc(F)c1 (centres undefined) | inconclusive [inhibitor, single point]
CCc1cc2c(SCC(=O)c3cccs3)ncnc2s1 | inconclusive [inhibitor, partial curve]

Structure (SMILES) | Potency
O=C(NC1CC1)c1cccc(NC(=O)c2cc(S(=O)(=O)N3CCOCC3)ccc2Cl)c1 | inactive
CCOC(=O)c1nnn(-c2nonc2-n2cccc2)c1CN1CCCCC1 | inconclusive [inhibitor, partial curve, poor fit]
COC(=O)c1ccccc1C(=O)N1CCCC(CCC(=O)NCc2ccc(F)c(F)c2)C1 (centres undefined) | inactive
O=C(NCCc1ccccc1)c1ccc(-c2ccc(F)cc2)o1 | inconclusive [inhibitor, single point]
CC(C)c1ccc(NC2CCCN(C(=O)c3cnsn3)C2)cc1 (centres undefined) | inconclusive [inhibitor, partial curve, poor fit]
CCOc1ccc(NC(=S)Nc2ccc(OCc3ccccc3)cc2)cc1 | inactive
Cc1c(C(=O)N2CCCCC2)oc2ccc(S(=O)(=O)N3CC(C)CC(C)C3)cc12 (centres undefined) | active: 8.91 µM
COc1cccc(NC(=O)Nc2nnc(CC(=O)NCc3ccccc3)s2)c1 | inconclusive [inhibitor, partial curve, poor fit]
COc1cc2c(cc1NC(=O)CCCN1C(=O)CCC1=O)oc1ccccc12 | inconclusive [inhibitor, single point]
CCN(Cc1ccccc1)C(c1cc2cc(C)ccc2[nH]c1=O)c1nnnn1CCOC (centres undefined) | inconclusive [inhibitor, partial curve, poor fit]
COCCN(Cc1nnc(-c2cccs2)o1)C(=O)c1cccc(S(=O)(=O)N2CCOCC2)c1 | inactive
COc1ccccc1CNC(=S)Nc1cc(C)ccc1C | inconclusive [inhibitor, single point]
O=C(Oc1cccc2cccnc12)c1cccc([N+](=O)[O-])c1 | inconclusive [inhibitor, single point]
COCc1cc(C)nc2sc3c(=O)n(-c4ccccc4C(F)(F)F)nnc3c12 | inactive
CCN(CC)c1ccc(NC(=O)c2ccccn2)cc1S(=O)(=O)Nc1ccccc1OC | inconclusive [inhibitor, partial curve, poor fit]
Cc1ccc(S(=O)(=O)N2CCCCC2)cc1C(=O)N(C)CCOc1ccccc1 | inconclusive [inhibitor, single point]
O=C(CCC(=O)Nc1ccc(F)cc1)N/N=C/c1c[nH]c2ccccc12 | inconclusive [inhibitor, partial curve]
Cc1ccc(-n2c(O)c(C=NCc3ccccn3)c3ccccc3c2=O)cc1C | inconclusive [inhibitor, partial curve, poor fit]
CCOC(=O)COc1cc(Br)c(/C=N/Nc2ccccc2)cc1OC | inconclusive [inhibitor, full curve, poor fit]
CCC(Sc1ncccc1C(=O)Oc1ccccc1Cl)C(=O)Nc1ccccc1OC (centres undefined) | inactive
Cc1ccccc1Nc1ccc([N+](=O)[O-])cn1 | inactive
CCOc1ccc(Br)cc1S(=O)(=O)Nc1cccc(S(=O)(=O)N(CC)CC)c1 | inconclusive [inhibitor, single point]
COCC(C)n1c(C)cc(C(=O)COC(=O)c2n[nH]c3ccccc23)c1C (centres undefined) | inconclusive [inhibitor, partial curve, poor fit]

Structure (SMILES) | Potency
CC1C(=O)N2CCCc3cc(S(=O)(=O)N(C)c4ccccc4)cc1c32 (centres undefined) | inactive
Cc1nn(C)c(C(=O)Sc2cccc(Cl)c2)c1[N+](=O)[O-] | inactive
C=C1C(=O)[C@]23C[C@H]1CC[C@H]2[C@]1(C)[C@@H](OC(C)=O)CC[C@@](C)(C(=O)O)[C@H]1C[C@@H]3O | inconclusive [inhibitor, partial curve, poor fit]
Cc1ccc(C)c(S(=O)(=O)NCc2ccc(C(=O)N3CCCCCC3)cc2)c1 | inconclusive [inhibitor, partial curve, poor fit]
CCOc1ccc(-n2ccnc(SCC(=O)NCc3cccc(OC)c3)c2=O)cc1 | inconclusive [inhibitor, single point]
O=C(Nc1ccnn1C1CCN(CCCc2ccccc2)CC1)c1ccccc1 | inconclusive [inhibitor, partial curve, poor fit]
CC1CCC2(CC1)Nc1ccccc1C(=O)N2c1ccccc1 (centres undefined) | inactive
CN(Cc1ccccc1)C(=O)COc1ccccc1 | inactive
CN1CCN(C(=O)Cn2c(-c3cccs3)cc3ccccc32)CC1 | inactive
Cc1ccc(N2C(=O)CS(=O)(=O)C23C(=O)N(Cc2ccccc2C)c2ccccc23)cc1Cl (centres undefined) | inactive
COc1cccc(NC(=O)c2cc(-c3ccncc3)nc3c(C)cc(C)cc23)c1 | inconclusive [inhibitor, single point]
CSCC[C@H](NC(=O)OC(C)(C)C)c1nnc(SCC(N)=O)o1 | inactive
CCOC(=O)C1=C(C)NC(C)=C(C(=O)OCC)C1C(=O)OCC(=O)NCc1ccco1 | inactive
CC(C(=O)NCC1CCCCC1)N(C)Cc1cccc(Cl)c1 (centres undefined) | inconclusive [inhibitor, single point]
CSc1ccccc1COC(=O)Nc1ccccc1C | inconclusive [inhibitor, single point]
Cc1sc2nc(CN(Cc3cccs3)C(=O)C3CC3)[nH]c(=O)c2c1C | inconclusive [inhibitor, partial curve]
Cc1nc2ccn(Cc3ccco3)c(=O)c2cc1C(=O)Nc1ccc(F)cc1 | inconclusive [inhibitor, partial curve, poor fit]
CN(C)CC(O)c1ccc(C=Cc2ccc(Cl)cc2)cc1 (centres undefined) | inconclusive [inhibitor, full curve, poor fit]
CSCC(C)N1CCC(CO)(CCCc2ccccc2)CC1 (centres undefined) | inconclusive [inhibitor, partial curve]
CN(C)CCCN(Cc1ccccc1)C(=S)Nc1cccc(C(F)(F)F)c1 | inconclusive [inhibitor, partial curve, poor fit]
CC1(Cc2cccc(F)c2)C(=O)Nc2ccc(S(=O)(=O)NC3CCCCC3)cc21 (centres undefined) | inactive
Cc1ccnc(NC(=O)CCCOc2cc(=O)n(C)c3ccccc23)c1 | inconclusive [inhibitor, single point]
COCCNC(=O)c1c(CSc2ccccc2)noc1C(=O)NCc1ccccc1 | inconclusive [inhibitor, single point]
